The values that follow come from ChEMBL document CHEMBL5308541, “MAIP: An Open-Source Tool to Enrich High-Throughput Screening Output and Identify Novel, Druglike Molecules with Antimalarial Activity” (ACS Med Chem Lett, 2023).

Among all 150,000 compounds or so, about 540 (0.36%) showed an effect of 50% or more. This is one part of the list.

In the assay the test system is Plasmodium falciparum. The experiment in a line: Primary screen in NF54 nanoGlo assay, in single point, at 2uM, 72h; a lower Z score goes with more inhibition. Format: functional, Erythrocyte. The settings on record: timepoint 72 hour.
The term % Inhibition denotes the drop in the measured response relative to a control, in per cent. As for `OCC[C@H]1CN(c2ncnc3c2CCNCC3)CCN1CC1CC1`, the “% Inhibition” value is listed as 3% and the Z score is listed as -0.6.

Regarding `O=C(Cc1c[nH]c2ncccc12)Nc1scnc1-c1ccccc1`, the “% Inhibition” value was 9% and the Z score is on record as -1.83.

On to `Nc1cc(N2CCC(N3CCN(CCc4ccccc4)CC3)C(O)C2)nc(N)n1` (centres undefined), for which the “% Inhibition” value is recorded as -12% and the Z score amounted to 1.89.

With `CC(C)c1n[nH]c(C(N)=O)c1NC(=O)c1ccnc(C(F)(F)F)c1`, the “% Inhibition” value is given as -11% and the Z score worked out at 2.1.

Consider `O=C(c1ccc(NCc2ccccc2-c2ccc(CN3CCCC3)cc2)nc1)N1CCCC1`, for which the “% Inhibition” value was -2% and the Z score worked out at 0.33.

Regarding `C[C@H](NC1CCC(C(=O)OC(C)(C)C)CC1)c1ccc(N2CCN(C)CC2)cc1` (some centres undefined), the “% Inhibition” value was determined as 4% and the Z score is on record as -0.78.

`CC[C@@H](c1ccccc1)N(CC(=O)OC)C(=O)COCc1nc(C)no1`: the “% Inhibition” value is given as -10% and the Z score worked out at 1.73.

As to `CCCN(CCN1CCN(CC)CC1)c1nc(-c2ccccn2)nc2c1CCC2`, the “% Inhibition” value came out at 31% and the Z score is -6.76.

In the case of `COCCN(CC1CCCN2CCCCC12)C(=O)c1cc(-c2c(C)nn(C)c2C)[nH]n1` (centres undefined), the “% Inhibition” value was -6% and the Z score worked out at 0.95.

For `Cc1ccccc1-c1cccc(CN2CC(CO)C(CN3CCOCC3)C2)c1` (centres undefined), the “% Inhibition” value amounted to 3% and the Z score is given as -0.55.

Regarding `CCN(C)CC1CN(c2nc(-c3ccccc3)nc3ccccc23)CC1CO` (centres undefined), the “% Inhibition” value is on record as -3% and the Z score turned out to be 0.56.

As to `Cc1ccc(F)c(OCC(=O)N2CCS(=O)(=O)C3COCCC32)c1` (centres undefined), the “% Inhibition” value is given as -16% and the Z score came to 2.47.

On to `CN1CCN(c2ncc(CN3CCN(C(=O)OC(C)(C)C)Cc4ccccc43)cn2)CC1`, for which the “% Inhibition” value is given as -5% and the Z score is 0.78.

Consider `Cc1ccc(-c2ccnc(N3CCCN(Cc4ccncc4)CC3)n2)c(C)n1`, for which the “% Inhibition” value is listed as -8% and the Z score worked out at 1.65.

In the case of `CCCN1CCN([C@@H](C)CCCN(C(=O)c2cnn3ccc(C)nc23)C2CC2)CC1`, the “% Inhibition” value is on record as 0% and the Z score amounted to 0.07.

In the case of `CC(C)Cn1cc(-c2nc(-c3ccc(OCC(F)F)nc3)no2)cn1`, the “% Inhibition” value worked out at 3% and the Z score was -0.57.

Take `CCN1CC[C@H](NC(=O)N2CCN(c3ccncc3C)CC2)C1`: the “% Inhibition” value is given as 0% and the Z score stood at 0.07.

As to `C1CCC(CCN2CCCN(C3CCOCC3)CC2)C1`, the “% Inhibition” value is given as -1% and the Z score is on record as 0.16.

With `Cn1c(NC[C@@H](c2ccccc2Cl)N2CCOCC2)nc2ccccc21`, the “% Inhibition” value was -7% and the Z score came out at 1.53.

Consider `Cc1cc(N2CCC(N(C)Cc3nc4ccccc4c(=O)[nH]3)CC2)nc(N)n1`, for which the “% Inhibition” value is -1% and the Z score came out at 0.15.

As to `CC[C@H]1COC(C)(C)CN1C(=O)COc1ccc(C)cc1C`, the “% Inhibition” value was -9% and the Z score came to 1.62.

Turning to `CCNc1ccc(-c2cc(CN(C)C)ccc2F)cn1`, the “% Inhibition” value is recorded as -7% and the Z score is on record as 1.49.

As for `O=C(NCCCO)c1ccc(NCc2nc(-c3ccoc3)no2)cc1`, the “% Inhibition” value is 0% and the Z score is reported as -0.05.

Take `Cc1nc([C@H](C)N(C)C(=O)c2ccc3nc(C4CCCCC4)oc3c2)c(C)s1`: the “% Inhibition” value was -1% and the Z score came out at 0.25.

With `CC(C)(C)OC(=O)NC1CCN(CC(=O)NCCNc2ncnc3sccc23)CC1`, the “% Inhibition” value is listed as -4% and the Z score amounted to 0.62.

With `CN1CCC(N2CCC[C@H](C(=O)N3CCN(c4ccc5nccn5n4)CC3)C2)CC1`, the “% Inhibition” value is -2% and the Z score worked out at 0.42.

In the case of `COc1ccc2oc(CNCCc3nc(C)cs3)cc2c1`, the “% Inhibition” value is -5% and the Z score is on record as 0.82.

In the case of `CC(C)(C)OC(=O)N1CC(O)C(CNCCCCc2cccc(C(F)(F)F)c2)C1` (centres undefined), the “% Inhibition” value is on record as 0% and the Z score came out at 0.08.

On to `Cn1cc(CNCC2(N3CCOCC3)CCCC2)c(-c2ccc3c(c2)OCCO3)n1`, for which the “% Inhibition” value was -3% and the Z score came out at 0.64.

Consider `CN1CCN(C[C@H](Nc2ncnc3[nH]ncc23)c2ccccc2)CC1`, for which the “% Inhibition” value was -3% and the Z score came to 0.56.

`COCCC[C@H]1CCCN(C2CCN(c3ccc(-c4cc[nH]n4)cc3)CC2)C1`: the “% Inhibition” value came out at 4% and the Z score is -0.63.

On to `CC(C)(C)OC(=O)N1CCC[C@H](CCN2CCN(CCOc3ccccc3)CC2)C1`, for which the “% Inhibition” value is -14% and the Z score turned out to be 2.78.

For the molecule `Nc1ccnc2ccc(-c3ccc(C(=O)NCC4CCOCC4)cc3)cc12`, the “% Inhibition” value is 83% and the Z score is on record as -16.44.

Take `CCc1ccc(CCN(C)[C@@H](C)CS(C)(=O)=O)cc1`: the “% Inhibition” value is reported as -2% and the Z score is recorded as 0.31.

Take `COc1cccc(Nc2nc(Nc3ccc(C)cc3)nc(C)c2N)c1`: the “% Inhibition” value is listed as 9% and the Z score is listed as -1.58.

For `CC(=O)C1=C(O)C(=O)N(c2ccccn2)[C@@H]1c1ccccc1`, the “% Inhibition” value is recorded as -7% and the Z score worked out at 1.24.

On to `CC(C)N1CCN(CCCN2CCC[C@H](C(F)(F)F)C2)CC1`, for which the “% Inhibition” value was -7% and the Z score was found to be 1.56.

For `CN1CCN(c2ccc(CNc3ccn(-c4ccccc4)n3)cc2)CC1`, the “% Inhibition” value is on record as -1% and the Z score came out at 0.21.

Turning to `OC[C@H]1CCCCN1CCCNc1ccc(-c2ccccc2)nn1`, the “% Inhibition” value came out at 0% and the Z score was 0.02.

In the case of `CN1CCC(Oc2ccc(CNCc3cccc4[nH]ccc34)cc2)CC1`, the “% Inhibition” value is recorded as 19% and the Z score is -3.22.

For `CCOc1ccccc1C1CC(c2ccc(Cl)cc2Cl)Nc2nc3ccccc3n21` (centres undefined), the “% Inhibition” value is -3% and the Z score turned out to be 0.48.

With `NC(=O)c1ccc(N2CCCCC2)c(NC(=O)Nc2cc(-c3cc(F)cc(F)c3)[nH]n2)c1`, the “% Inhibition” value is on record as 6% and the Z score was -0.86.

In the case of `Cc1nccn1-c1ccc([C@H](C)Nc2nc(-c3ccncc3)nc3c2CCC3)cc1`, the “% Inhibition” value is reported as -7% and the Z score worked out at 1.15.

On to `Fc1cccc(F)c1N1CC[C@H](NC2CCN(CC(F)F)CC2)C1`, for which the “% Inhibition” value is listed as -7% and the Z score was determined as 1.32.

For the molecule `Cc1nc(CN)cc(NCCC2CCN(C(C)C)CC2)n1`, the “% Inhibition” value is listed as -2% and the Z score is on record as 0.34.

As for `O=C(C1CCN(C2CCOCC2)CC1)N1CC2CCC(C1)NC2` (centres undefined), the “% Inhibition” value was 0% and the Z score was found to be 0.05.

As for `Cc1cc2cc(C(=O)N3Cc4cnc(-c5ccccc5)nc4C3)ccc2o1`, the “% Inhibition” value turned out to be 5% and the Z score is -1.11.

Regarding `Cc1cc(-n2cccn2)ccc1-c1c(-c2ccccc2)ncn1CCCCN`, the “% Inhibition” value is reported as -2% and the Z score came out at 0.42.

As to `C[C@@H](C1CC1)n1cc(NC(=O)NC2CCN(C3CCN(C)CC3)CC2)cn1`, the “% Inhibition” value was -9% and the Z score came to 1.54.

Consider `COC[C@H]1CCCN(C(=O)C(C)(C)c2csc(-c3cccs3)n2)C1`, for which the “% Inhibition” value was 5% and the Z score is given as -1.03.

On to `CN1CCCN(CC2CC(CO)CN(C(=O)c3ccc4[nH]nnc4c3)C2)CC1` (centres undefined), for which the “% Inhibition” value is -3% and the Z score came to 0.44.

Take `Cc1cc2cc[nH]c2cc1NC(=O)c1cc(N2CC(C)OC(C)C2)ccn1` (centres undefined): the “% Inhibition” value is reported as -4% and the Z score came to 0.87.
